Measurements as given in article PMC10017685 (Nature Communications, 2023).
Values after ≈ are worked out from the molar mass of the structure shown. Like-named read-outs stand apart in the source and are kept apart here. Peptide text beside a SMILES is read from it.

Columns and labels:
[1] = system: S. aureus ATCC 33591; assay type: cell-based, Staphylococcus aureus; settings: ATCC 33591, 24 h
Description: (§1) Fresh cultures were used in antimicrobial assay. […] Moreover MBC was evaluated. […] All experiments were conducted in triplicate.

[2] = system: E. coli ATCC 25922; assay type: cell-based, Escherichia coli; settings: for MIC E. coli ATCC 25922: first experimental round, broth microdilution (CLSI), Mueller-Hinton Broth, 0.5 × 10^5 CFU/mL, 1-[…], 18 h at 37 °C, triplicate
Description: as §1

[3] = system: E. coli ATCC 43827; assay type: cell-based, Escherichia coli; settings: for MIC E. coli ATCC 43927: first experimental round, broth microdilution (CLSI), Mueller-Hinton Broth, 0.5 × 10^5 CFU/mL, 1-[…], 18 h at 37 °C, triplicate
[4] = system: A. baumannii ATCC BAA 1605; assay type: cell-based, Acinetobacter baumannii; settings: ATCC BAA 1605, 24 h
Description: as §1

[5] = system: P. aeruginosa ATCC 9027; assay type: cell-based, Pseudomonas aeruginosa; settings: ATCC 9027, 24 h
Description: as §1

[6] = Supplementary Data 5F, analogue generation without additional preselection

CC[C@H](C)[C@H](NC(=O)[C@H](CCCCN)NC(=O)[C@H](CC(N)=O)NC(=O)[C@@H](NC(=O)[C@@H](NC(=O)[C@H](CCCCN)NC(=O)[C@@H](NC(=O)[C@H](C)NC(=O)[C@@H](NC(=O)[C@H](Cc1c[nH]cn1)NC(=O)CNC(=O)[C@H](C)NC(=O)[C@H](CC(C)C)NC(=O)[C@H](CC(=O)O)NC(=O)[C@H](CCCCN)NC(=O)[C@H](C)NC(=O)[C@H](C)NC(=O)CNC(=O)[C@H](CCCCN)NC(=O)[C@H](CC(C)C)NC(=O)[C@@H](NC(=O)[C@H](CC(=O)O)NC(=O)[C@H](CC(C)C)NC(=O)[C@@H](NC(=O)CN)C(C)C)[C@@H](C)CC)C(C)C)[C@@H](C)O)C(C)C)[C@@H](C)CC)C(N)=O [Syphaxin, reference compound] (H-GVLDILKGAAKDLAGHVATKVINKI-NH2)
S. aureus ATCC 33591 MBC [1]: >512 µg/mL | E. coli ATCC 25922 MBC ([2]; ATCC 25922, 24 h): 512 µg/mL | E. coli ATCC 43827 MBC ([3]; ATCC 43827, 24 h): >512 µg/mL | A. baumannii ATCC BAA 1605 MBC [4]: 256 µg/mL | P. aeruginosa ATCC 9027 MBC [5]: >512 µg/mL

CC[C@H](C)[C@H](N)C(=O)NCC(=O)N[C@@H](CCCCN)C(=O)N[C@@H](CCC(=O)O)C(=O)N[C@@H](Cc1ccccc1)C(=O)N[C@@H](CCCCN)C(=O)N[C@@H](CCCNC(=N)N)C(=O)N[C@H](C(=O)N[C@H](C(=O)N[C@@H](CCC(=O)O)C(=O)N[C@@H](CCCNC(=N)N)C(=O)N[C@H](C(=O)N[C@@H](CCCCN)C(=O)N[C@@H](CCCNC(=N)N)C(=O)N[C@@H](Cc1ccccc1)C(=O)N[C@@H](CC(C)C)C(=O)N[C@@H](CCCNC(=N)N)C(=O)N[C@@H](CCC(=O)O)C(=O)N[C@@H](CC(C)C)C(=O)N[C@H](C(=O)N[C@@H](CCCNC(=N)N)C(=O)N1CCC[C@H]1C(=O)N[C@@H](CC(C)C)C(=O)N[C@@H](CCCNC(=N)N)C(N)=O)C(C)C)[C@@H](C)CC)C(C)C)[C@@H](C)CC [OP-145, reference compound] (H-IGKEFKRIVERIKRFLRELVRPLR-NH2)
S. aureus ATCC 33591 MBC [1]: 128 µg/mL | E. coli ATCC 25922 MBC ([2]; ATCC 25922, 24 h): 128 µg/mL | E. coli ATCC 25922 MIC ([2]; ATCC 25922, 24 h): 128 µg/mL | E. coli ATCC 43827 MBC ([3]; ATCC 43827, 24 h): 256 µg/mL | E. coli ATCC 43827 MIC ([3]; ATCC 43827, 24 h): 128 µg/mL | A. baumannii ATCC BAA 1605 MBC [4]: 32 µg/mL | P. aeruginosa ATCC 9027 MBC [5]: >512 µg/mL

CC[C@H](C)[C@H](NC(=O)CNC(=O)[C@H](CO)NC(=O)[C@H](Cc1ccccc1)NC(=O)[C@@H](NC(=O)[C@H](CCCNC(=N)N)NC(=O)CNC(=O)[C@@H](NC(=O)[C@H](CC(C)C)NC(=O)[C@@H]1CCCN1C(=O)[C@H](CC(C)C)NC(=O)[C@@H](N)Cc1ccccc1)[C@@H](C)CC)C(C)C)C(=O)N[C@@H](CC(C)C)C(N)=O [Temp-P1-1]
E. coli ATCC 25922 MIC [2, 6]: 512 µg/mL | MIC E. coli ATCC 25922 [2]: 512 µg/mL (≈ 358 µM) | E. coli ATCC 43827 MIC [3, 6]: 512 µg/mL | MIC E. coli ATCC 43927 [3]: 512 µg/mL (≈ 358 µM)

CC[C@H](C)[C@H](NC(=O)[C@H](Cc1c[nH]c2ccccc12)NC(=O)[C@H](CC(C)C)NC(=O)[C@H](CCCCN)NC(=O)[C@H](CCCCN)NC(=O)[C@H](C)NC(=O)[C@@H](NC(=O)CN)C(C)C)C(=O)N[C@@H](C)C(=O)N[C@@H](C)C(=O)N[C@@H](CCCCN)C(=O)N[C@@H](CCCCN)C(=O)N1CCC[C@H]1C(=O)N[C@@H](C)C(=O)NCC(=O)N[C@@H](C)C(=O)NCC(=O)N[C@@H](CO)C(=O)N[C@@H](CCCCN)C(=O)N[C@@H](Cc1ccccc1)C(=O)N[C@@H](CCCCN)C(=O)N[C@@H](CC(C)C)C(=O)N[C@@H](CC(C)C)C(N)=O [Pex-P1-3]
E. coli ATCC 25922 MIC [2, 6]: >512 µg/mL | MIC E. coli ATCC 25922 [2]: >512 µg/mL | E. coli ATCC 43827 MIC [3, 6]: 512 µg/mL | MIC E. coli ATCC 43927 [3]: 512 µg/mL (≈ 215 µM)

CC[C@H](C)[C@H](NC(=O)CNC(=O)[C@H](CO)NC(=O)[C@H](Cc1ccccc1)NC(=O)[C@@H](NC(=O)[C@H](CCCNC(=N)N)NC(=O)CNC(=O)[C@@H](NC(=O)[C@H](CC(C)C)NC(=O)[C@@H]1CCCN1C(=O)[C@H](CC(C)C)NC(=O)[C@@H](N)Cc1ccccc1)[C@@H](C)CC)C(C)C)C(=O)N[C@@H](CCCCN)C(N)=O [Temp-P1-2]
E. coli ATCC 25922 MIC [2, 6]: >512 µg/mL | MIC E. coli ATCC 25922 [2]: >512 µg/mL | E. coli ATCC 43827 MIC [3, 6]: >512 µg/mL | MIC E. coli ATCC 43927 [3]: >512 µg/mL

CC[C@H](C)[C@H](NC(=O)[C@@H]1CCCN1C(=O)[C@H](CC(C)C)NC(=O)[C@@H](N)Cc1ccccc1)C(=O)N[C@@H](CCCCN)C(=O)N[C@@H](CC(N)=O)C(=O)N[C@@H](CCCNC(=N)N)C(=O)N[C@@H](Cc1ccc(O)cc1)C(=O)N[C@@H](C)C(=O)N[C@@H](CO)C(=O)N[C@@H](C)C(=O)N[C@@H](C)C(=O)N[C@@H](CCC(=O)O)C(N)=O [Temp-P1-5]
E. coli ATCC 25922 MIC [2, 6]: >512 µg/mL | MIC E. coli ATCC 25922 [2]: >512 µg/mL | E. coli ATCC 43827 MIC [3, 6]: >512 µg/mL | MIC E. coli ATCC 43927 [3]: >512 µg/mL

CC[C@H](C)[C@H](NC(=O)CN)C(=O)NCC(=O)N[C@@H](CCCCN)C(=O)N[C@@H](Cc1ccccc1)C(=O)N[C@@H](CC(C)C)C(=O)N[C@@H](CCCCN)C(=O)N[C@@H](CCCCN)C(=O)N[C@@H](C)C(=O)N[C@@H](CCCCN)C(=O)N[C@@H](CCCCN)C(=O)N[C@@H](Cc1ccccc1)C(=O)NCC(=O)N[C@@H](CCCCN)C(=O)N[C@@H](C)C(=O)N[C@@H](Cc1ccccc1)C(=O)N[C@H](C(=O)N[C@@H](CCCCN)C(=O)N[C@H](C(=O)N[C@@H](CC(C)C)C(=O)N[C@@H](CCCCN)C(=O)N[C@@H](CCCCN)C(N)=O)[C@@H](C)CC)C(C)C [Pexiganan, reference compound] (H-GIGKFLKKAKKFGKAFVKILKK-NH2)
S. aureus ATCC 33591 MBC [1]: 32 µg/mL | S. aureus ATCC 33591 MIC [1]: 32 µg/mL | E. coli ATCC 25922 MBC ([2]; ATCC 25922, 24 h): 32 µg/mL | E. coli ATCC 43827 MBC ([3]; ATCC 43827, 24 h): 8 µg/mL | E. coli ATCC 43827 MIC ([3]; ATCC 43827, 24 h): 4 µg/mL | A. baumannii ATCC BAA 1605 MBC [4]: 2 µg/mL | P. aeruginosa ATCC 9027 MBC [5]: 32 µg/mL

CC[C@H](C)[C@H](NC(=O)CNC(=O)[C@H](CO)NC(=O)[C@H](CCCCN)NC(=O)[C@@H](NC(=O)[C@H](CCCNC(=N)N)NC(=O)CNC(=O)[C@@H](NC(=O)[C@H](CC(C)C)NC(=O)[C@@H]1CCCN1C(=O)[C@H](CC(C)C)NC(=O)[C@@H](N)Cc1ccccc1)[C@@H](C)CC)C(C)C)C(=O)N[C@@H](CCCCN)C(N)=O [Temp-P1-4]
E. coli ATCC 25922 MIC [2, 6]: >512 µg/mL | MIC E. coli ATCC 25922 [2]: >512 µg/mL | E. coli ATCC 43827 MIC [3, 6]: >512 µg/mL | MIC E. coli ATCC 43927 [3]: >512 µg/mL

CC[C@H](C)[C@H](NC(=O)CNC(=O)[C@H](CO)NC(=O)[C@H](CC(C)C)NC(=O)[C@@H](NC(=O)[C@H](CCCNC(=N)N)NC(=O)CNC(=O)[C@@H](NC(=O)[C@H](CC(C)C)NC(=O)[C@@H]1CCCN1C(=O)[C@H](CC(C)C)NC(=O)[C@@H](N)Cc1ccccc1)[C@@H](C)CC)C(C)C)C(=O)N[C@@H](CC(C)C)C(N)=O [Temporin-A, reference compound] (H-FLPLIGRVLSGIL-NH2)
E. coli ATCC 25922 MIC ([2]; ATCC 25922, 24 h): 256 µg/mL | E. coli ATCC 43827 MIC ([3]; ATCC 43827, 24 h): 256 µg/mL

CC[C@H](C)[C@H](NC(=O)[C@H](Cc1ccccc1)NC(=O)[C@H](CCCCN)NC(=O)[C@H](CC(N)=O)NC(=O)[C@H](CC(C)C)NC(=O)[C@H](CCC(N)=O)NC(=O)CN)C(=O)N[C@@H](CCCCN)C(=O)N[C@@H](CCCCN)C(=O)N[C@@H](C)C(=O)N[C@@H](CCC(N)=O)C(=O)N[C@@H](CCCNC(=N)N)C(=O)N[C@@H](CCCCN)C(=O)N[C@@H](Cc1ccccc1)C(=O)N[C@@H](Cc1c[nH]cn1)C(=O)N[C@@H](CCC(=O)O)C(=O)N[C@@H](CCCCN)C(=O)N[C@@H](Cc1ccccc1)C(=O)N[C@@H](C)C(=O)N[C@@H](CCCCN)C(N)=O [GQ20, reference compound] (H-GQLNKFIKKAQRKFHEKFAK-NH2)
S. aureus ATCC 33591 MBC [1]: >512 µg/mL | E. coli ATCC 25922 MBC ([2]; ATCC 25922, 24 h): >512 µg/mL | E. coli ATCC 43827 MBC ([3]; ATCC 43827, 24 h): >512 µg/mL | A. baumannii ATCC BAA 1605 MBC [4]: 512 µg/mL | P. aeruginosa ATCC 9027 MBC [5]: >512 µg/mL

CC(C)C[C@H](NC(=O)[C@H](CCCCN)NC(=O)CNC(=O)[C@H](C)NC(=O)[C@H](CCC(N)=O)NC(=O)[C@H](Cc1c[nH]c2ccccc12)NC(=O)[C@H](CC(C)C)NC(=O)[C@H](CCCCN)NC(=O)[C@H](CCCCN)NC(=O)[C@H](CC(C)C)NC(=O)[C@H](CCC(=O)O)NC(=O)CN)C(=O)N[C@@H](CO)C(=O)N[C@@H](CCC(=O)O)C(=O)N[C@@H](CCC(=O)O)C(=O)N[C@@H](CC(=O)O)C(=O)NCC(=O)NCC(=O)N[C@@H](C)C(=O)N[C@@H](Cc1ccccc1)C(=O)N[C@@H](CCCCN)C(=O)N[C@@H](C)C(=O)NCC(N)=O [Pex-P1-4]
E. coli ATCC 25922 MIC [2, 6]: >512 µg/mL | MIC E. coli ATCC 25922 [2]: >512 µg/mL | E. coli ATCC 43827 MIC [3, 6]: >512 µg/mL | MIC E. coli ATCC 43927 [3]: >512 µg/mL
